Assay results taken from PubChem BioAssay AID2675 (National Center for Advancing Translational Sciences (NCATS), 2010).
Screen size: about 280,000 compounds; about 100 (0.036%) were called active. Inconclusive results, whose numbers are uncertain, are shown with a selection of clear calls. Calls come from the whole dose curve; as a rule, active = well fitted inhibition curve with a large enough effect in the signal ratio, with a control signal flat (not every such curve was filed as active); inconclusive = small, poorly fitted or top-dose-only effect, or effect the other way, or a change in a side signal; inactive = no such curve, though single readings can be large or run the other way; the % refers to the signal ratio. Where the call is inconclusive, the potency comes from a doubtful curve fit. A note “side channel” means that the fit belongs to a control or component signal, not to the main read-out.

Target: Muscleblind-like protein 1 (Homo sapiens) (UniProt Q9NR56)
UniProt Q9NR56, sequence (Q9NR56 whole entry, looked up): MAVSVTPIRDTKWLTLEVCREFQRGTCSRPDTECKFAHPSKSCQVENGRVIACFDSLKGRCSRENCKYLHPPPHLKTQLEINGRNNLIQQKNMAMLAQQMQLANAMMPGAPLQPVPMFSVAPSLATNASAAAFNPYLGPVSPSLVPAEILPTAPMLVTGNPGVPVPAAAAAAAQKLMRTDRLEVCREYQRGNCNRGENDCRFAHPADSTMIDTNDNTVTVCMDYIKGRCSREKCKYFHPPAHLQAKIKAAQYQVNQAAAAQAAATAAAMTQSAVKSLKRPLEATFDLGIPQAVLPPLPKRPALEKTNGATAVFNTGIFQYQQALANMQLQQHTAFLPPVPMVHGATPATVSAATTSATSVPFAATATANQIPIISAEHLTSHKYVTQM
Test: qHTS Assay for Inhibitors of MBNL1-poly(CUG) RNA binding
Details: TR-FRET MBNL1-His/biotin-(CUG)12 binding, 665/545 ratio; series mostly up to 57.5 µM
In short: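 Inhibition of protein-RNA binding appears as loss of TR-FRET between terbium anti-His antibody on MBNL1-His and streptavidin-XL665 on biotin-(CUG)12. Activity is normalized to buffer-only and uninhibited-complex controls.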
Potency is the fitted concentration of half-maximal effect; tags give direction and shape of the fitted curve or compound fluorescence and quenching.

| Compound | Potency |
| --- | --- |
| Cc1cc(/C=N/Nc2nc(N)ncc2[N+](=O)[O-])c(C)n1-c1cccc(C(F)(F)F)c1 | inconclusive: 11.2 µM [quencher, side channel, partial curve, poor fit] |
| COc1cccc(/C=N/Nc2ccnc(=O)[nH]2)c1O | inconclusive: 17.8 µM [quencher, side channel, partial curve] |
| C=CCn1c(=O)/c(=C\c2ccsc2)s/c1=C(/C#N)C(=O)NCCN1CCOCC1 | inconclusive: 3.55 µM [quencher, side channel, partial curve] |
| Cc1cccn2c(=O)c3cc(C(=O)NCC4CCCO4)c(=N)n(C4CCCC4)c3nc12 (stereo unspecified) | inconclusive: 3.55 µM [quencher, full curve] |
| COc1ccccc1N1CCN(CC(O)c2c(C)[nH]c3ccccc23)CC1 (stereo unspecified) | inactive |
| O=C(NCC1CCCO1)c1ccc2c(c1)C(=O)N(c1cccc([N+](=O)[O-])c1)C2=O (stereo unspecified) | inconclusive: 5.62 µM [quencher, side channel, partial curve] |
| CCOc1cc(/C=C2\SC(=S)N(NC(=O)c3cccnc3)C2=O)ccc1O | inconclusive: 8.91 µM [quencher, side channel, partial curve] |
| Nc1nc(Nc2ccc(Cl)cc2)nc(NCCO)c1[N+](=O)[O-] | inconclusive: 7.94 µM [quencher, side channel, partial curve, poor fit] |
| CCSc1cc(C2C(C#N)=C(N)OC(C)=C2C(=O)OC)c(C)o1 (stereo unspecified) | inactive |
| COc1cc(OC)c(C2Nc3cccc4cccc(c34)N2)c(OC)c1 | inconclusive: 25.1 µM [quencher, side channel, single point] |
| COC/C=C/C1=CC2=CC(=O)C(C)(OC(=O)c3cnc4ccccc4n3)C(=O)C2=CN1CCN1CCOCC1 (stereo unspecified) | inconclusive: 28.2 µM [quencher, side channel, partial curve] |
| O=C(O)CCCCCNC(=O)c1cccc(Br)c1 | inactive |
| O=c1[nH]c2cc3c(cc2cc1CN(Cc1nnnn1C1CCCC1)C1CCCC1)OCCO3 | inconclusive: 28.2 µM [quencher, side channel, single point] |
| O=c1oc2ccccc2nc1/C=C(\O)c1ccc(Br)cc1 | inconclusive: 6.31 µM [quencher, side channel, full curve] |
| Cn1cccc1/C=C1/SC(=O)N(CC(=O)N2CCCC2)C1=O | inconclusive: 12.6 µM [quencher, partial curve] |
| CCCc1nnc2n1N=C(c1ccc([N+](=O)[O-])cc1)CS2 | inconclusive: 4.47 µM [quencher, side channel, full curve] |
